Experimental findings from the supplement of paper PMC4604168 (melanoma cell lines) are described below.

Some test systems named below: WM115; WM1716; WM1745; WM3526; WM3619; WM451Lu.
Test in all cases: cell count relative to DMSO control; melanoma cells; higher = more viable cells
Holding throughout (conditions): library dose: low library concentration; 72 h

The structures appear in SMILES notation. This is one part of the list. Repeats are few or missing, and single values can be far off.
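Further: cell number obtained by counting DAPI-stained nuclei in high-throughput microscope images with image analysis software, screen run in 1,536-well plates.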

In the case of `CC[C@]1(O)C[C@H]2CN(CCc3c([nH]c4ccccc34)[C@@](C(=O)OC)(c3cc4c(cc3OC)N(C=O)[C@H]3[C@@](O)(C(=O)OC)[C@H](OC(C)=O)[C@]5(CC)C=CCN6CC[C@]43[C@@H]65)C2)C1` [vincristine] + O=c1cc(-c2cccc3c2Sc2ccccc2S3)oc(N2CCOCC2)c1 [KU55933] (first compound 0.0001 µM, partner dose 1 µM), the cell count with WM115 stood at 45.5%; with WM1716, 34.5%; in the assay with WM1745, 78.5%; with WM3526, 72.2%; in the assay with WM3619, 53.6%; with WM451Lu it was 46.6%.
With `N#CC[C@H](C1CCCC1)n1cc(-c2ncnc3[nH]ccc23)cn1` [ruxolitinib] + CCCCCCCCCCCC1=C(O)C(=O)C=C(O)C1=O [Embelin] (first compound 1 µM, partner dose 1.2 µM), the cell count was 105% in the assay on WM115; 119% in the assay with WM1716; 87% in the assay with WM1745; 104% in the assay on WM3526; 101% with WM3619; 83.8% in the assay on WM451Lu.
As for `N#CC[C@H](C1CCCC1)n1cc(-c2ncnc3[nH]ccc23)cn1` [ruxolitinib] + O=C(O)c1ccc(-c2c[nH]c3ncc(-c4ccccc4)cc23)cc1C1CCCC1 [GSK650394] (first compound 1 µM, partner dose 0.16 µM), the cell count with WM115 was 112%; in the assay with WM1716 it was 93.4%; in the assay with WM1745 it was 108%; with WM3526, 117%; with WM3619 it was 78.4%; with WM451Lu, 79.6%.
With `N#CC[C@H](C1CCCC1)n1cc(-c2ncnc3[nH]ccc23)cn1` [ruxolitinib] + CCCS(=O)(=O)Nc1ccc(F)c(C(=O)c2c[nH]c3ncc(Cl)cc23)c1F [PLX4720] (first compound 1 µM, partner dose 0.08 µM), the cell count in the assay on WM115 was found to be 102%; in the assay on WM1716, 104%; in the assay with WM1745, 114%; in the assay with WM3526, 85.7%; with WM3619 it was 92.6%; in the assay on WM451Lu it was 89.1%.
